Assay results taken from the supplement of paper PMC3334620.
Whole data set: some 33,000 sequences, median “E-score (-0.5 to 0.5)” near -0.016, cut for the highest 2% near 0.32. This is one part of the list.

Target: T1, Stp1 (UniProt B3LFK1)
T1 sequence: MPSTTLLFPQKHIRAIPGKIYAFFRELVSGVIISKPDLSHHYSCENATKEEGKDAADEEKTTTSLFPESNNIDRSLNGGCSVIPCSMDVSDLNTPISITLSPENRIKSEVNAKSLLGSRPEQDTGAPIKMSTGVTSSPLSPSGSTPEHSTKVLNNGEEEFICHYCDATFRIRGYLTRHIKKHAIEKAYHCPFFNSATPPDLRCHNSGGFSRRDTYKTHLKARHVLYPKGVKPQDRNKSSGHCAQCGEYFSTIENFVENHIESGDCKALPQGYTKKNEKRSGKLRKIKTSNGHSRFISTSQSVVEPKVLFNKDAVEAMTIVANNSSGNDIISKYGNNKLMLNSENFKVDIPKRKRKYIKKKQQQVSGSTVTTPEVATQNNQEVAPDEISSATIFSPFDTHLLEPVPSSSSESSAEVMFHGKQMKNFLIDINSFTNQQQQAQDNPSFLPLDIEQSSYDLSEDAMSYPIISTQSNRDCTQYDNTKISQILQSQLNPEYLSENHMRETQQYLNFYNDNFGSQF
Test: PBM E-score (8-mer binding enrichment) (E-score (-0.5 to 0.5)); higher = stronger / more preferred TF binding; most listed sequences are background and not binding sites
Conditions: protein concentration: 200 nM; construct: GST-full length
Description: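 Universal 'all 10-mer' protein binding microarrays (Agilent AMADID 015681) probed with GST-tagged S. cerevisiae TFs (full-length or DBD) made by in vitro transcription/translation (PURExpress), about 100-200 nM. Bound TF was detected with fluorescent anti-GST. Each ungapped 8-mer (which stands for itself and its reverse complement) is scored by the PBM enrichment score (E-score), a modified Wilcoxon-Mann-Whitney statistic from -0.5 to +0.5, computed with the Universal PBM Analysis Suite. Scale: above 0.35 generally sequence-specific binding.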

In order of falling “PBM E-score” value:
1. CTGCGGCA  0.422
2. AAGGCACG  0.397
3. CGAGCCGC  0.385
4. GCGGCAAA  0.383
5. CGTGCGCC  0.314
6. ATCGGCAT  0.238
7. CATAACAA  0.235
8. GCGCTACA  0.211
9. CGCGCACA  0.211
10. CGCGTGAA  0.206
11. TATGAAAA  0.202
12. GATAGGCA  0.194
13. ATGATTTC  0.189
14. GTGAAACA  0.177
15. AATTTCTC  0.174
16. ATATAGAT  0.173
17. AATGGCGT  0.161
18. AGTCGGCA  0.154
19. CCGTCGGC  0.152
20. AGTTGAAT  0.145
21. ATAGTAAA  0.143
22. GCGTTGCC  0.14
23. CCGTGATA  0.139
24. CACCAAGA  0.134
25. AAAATGTG  0.133
26. GTTTCAGA  0.13
27. GAACTGGA  0.122
28. CCGGCCGA  0.12
29. AATATCCA  0.111
30. ATTGTTCC  0.11
31. CGACATTA  0.11
32. CGTAAAAC  0.109
33. CAATATTA  0.108
34. GCATTGAA  0.105
35. AAAATTGC  0.101
36. AGTATGAC  0.1
37. AACAAGCG  0.0955
38. AACTTACA  0.0946
39. CGCCATTA  0.092
40. ACTTACAC  0.0886
41. AGAGATTG  0.0857
42. CACGCAGG  0.0824
43. ACAAATGA  0.0786
44. CCGTCTTA  0.0744
45. ATCCTAAC  0.0728
46. CAAACTCC  0.0727
47. AACCAAGA  0.0718
48. AGGATTAA  0.0704
49. CAGTTGCA  0.0669
50. CGTGTCCC  0.0668
51. ATGCTTAG  0.064
52. AAAATGTC  0.0611
53. GACCATTA  0.054
54. GAGTACTA  0.051
55. CATGTTAC  0.0487
56. AGCCAGAC  0.0482
57. AAGTAAGA  0.0481
58. CGACTACA  0.0468
59. AGGACCGC  0.0444
60. ATGGTTCC  0.0442
61. CTGAAAGC  0.0435
62. GCTAACGA  0.0327
63. CCACCTAA  0.0326
64. AATGAAGC  0.0211
65. GTAGCAAA  0.0195
66. GAAATAGC  0.0194
67. TCACCCCA  0.0126
68. CAATGTCG  0.012
69. ACTCATCG  0.012
70. AGGCGGAG  0.0102
71. CCTTACAC  0.00933
72. GCGATGAC  0.00143
73. CACGCTCA  -0.00088
74. AGCGAGCC  -0.00125
75. AAGGGATA  -0.00219
76. ATGTAATC  -0.00954
77. ATGTGCGA  -0.011
78. GCGCAGCC  -0.013
79. TGATCAAA  -0.0142
80. CAGCAAGA  -0.0152
81. CAGCTCGC  -0.0157
82. TAGGAAAA  -0.0169
83. TAGCGTCA  -0.0187
84. AACGTTGG  -0.0241
85. GACGTACA  -0.0246
86. TACACAGA  -0.0248
87. GGGGGTAC  -0.025
88. AGCGCCTG  -0.0292
89. GCCGACCA  -0.0352
90. AAACCAGG  -0.0379
91. ATTGGTCC  -0.0399
92. GTCGTGTA  -0.0401
93. GATTTCCA  -0.0499
94. AATCCACA  -0.0508
95. CGACAGCC  -0.0511
96. GGAAGATA  -0.0545
97. CACTCTTC  -0.0549
98. TGAGCTAA  -0.0596
99. TACCGAAA  -0.0624
100. AAGAAGCT  -0.0628
101. AGACTACT  -0.0654
102. CTGCAAAC  -0.0684
103. CATCTTTC  -0.0695
104. CATAAATG  -0.0701
105. CCGTCAAC  -0.0749
106. AAGCTCGG  -0.0757
107. CATCGAGA  -0.0794
108. CCATAGCC  -0.0867
109. ATGGTCAG  -0.0872
110. CAACCCGG  -0.0873
111. ACACCCAT  -0.088
112. AACCCACG  -0.09
113. AGAGACAA  -0.0906
114. AATGAGTC  -0.0951
115. CGCACCTC  -0.0966
116. CTTAGCGA  -0.0978
117. CTCAGAAG  -0.0989
118. AGAGCTGA  -0.099
119. GGACGCCA  -0.102
120. CGACAACC  -0.103
121. CAACTTGC  -0.104
122. AGGTAAGG  -0.106
123. CGACCGAG  -0.106
124. ATCCTGGA  -0.107
125. GCAAGCGA  -0.108
126. AACATGGT  -0.108
127. ACGGGTGG  -0.109
128. GTTAATGA  -0.114
129. AAGCTAGA  -0.119
130. CGTTACCC  -0.121
131. AATCGCTG  -0.123
132. AAATTCCC  -0.125
133. AGGTTGGG  -0.125
134. GACAGGAC  -0.13
135. GGAGCTAA  -0.134
136. AAAGAGCT  -0.137
137. TCCACCAA  -0.144
138. ACCCAAGA  -0.144
139. GACTTGAC  -0.145
140. CACCCCAG  -0.151
141. AGCAAAGA  -0.152
142. GAAATTTC  -0.153
143. AACCGCCA  -0.153
144. ATAGCTGA  -0.155
145. GGTCCATA  -0.16
146. GAGTGGAC  -0.167
147. ACTCTGAC  -0.168
148. AGGTAGTC  -0.173
149. AGAGAGTC  -0.173
150. CCCTGTCC  -0.184
151. CTCCTAAA  -0.191
152. ATGGACTG  -0.195
153. AGCTCTGG  -0.2
154. CAGCCCCG  -0.208
155. GTAGCCTA  -0.217
156. GTGGGAGA  -0.222
157. CCAGTCAC  -0.225
158. AAATGTCC  -0.229
159. AAGACATC  -0.229
160. ACCGCTTA  -0.238
161. CGAATGTA  -0.241
162. GTAGCGAC  -0.246
163. GGCCAGGA  -0.252
164. AGCTATAG  -0.267
165. AGGAGACT  -0.27
166. CATAGGGG  -0.293
167. ACCCTCAC  -0.307
168. CAATGGTG  -0.307
169. GGCCTAGA  -0.317
170. GGGGGATA  -0.387
171. AATCCCCC  -0.393
172. CCCCCAGG  -0.462
